# Some of the results follow. These are noisy estimates, calculated here from bound and input reads.
# Target: T1, Pho4 (S. cerevisiae) (UniProt P07270)
# T1 sequence: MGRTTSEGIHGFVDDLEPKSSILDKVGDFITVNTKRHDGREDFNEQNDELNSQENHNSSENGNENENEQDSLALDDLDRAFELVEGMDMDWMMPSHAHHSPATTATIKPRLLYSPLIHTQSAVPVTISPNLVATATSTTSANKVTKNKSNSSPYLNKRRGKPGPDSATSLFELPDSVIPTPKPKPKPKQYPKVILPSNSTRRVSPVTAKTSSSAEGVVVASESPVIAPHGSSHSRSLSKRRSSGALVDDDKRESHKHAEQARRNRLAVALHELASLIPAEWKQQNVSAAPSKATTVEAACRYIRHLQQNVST
# Assay: relative binding free energy (BET-seq); higher = weaker binding
# Conditions: reference: library average
row,Sequence,relative binding free energy [kcal/mol]
1,AGTCGCACGTGCAGTG,0.08
2,AGTTGCACGTGTTACG,0.12
3,ATGTGCACGTGCTGTA,-0.13
4,GTCTCCACGTGGTGGG,-0.05
5,GGCGGCACGTGTTGTT,0.05
6,AGTTTCACGTGAGAGA,0.37
7,GTTGTCACGTGTTTAG,0.22
8,GATTACACGTGGTGGT,0.12
9,GGGTGCACGTGGTCGC,-0.15
10,TAGCTCACGTGCGGTG,0.08
11,TGCAGCACGTGGGATT,-0.14
12,AAGGGCACGTGAAATG,0.13
13,ATTGTCACGTGCAGTA,0.02
14,TGATGCACGTGTAGGG,-0.02
15,ATGGGCACGTGGGTAA,-0.21
16,GGGGACACGTGTGGGA,0.12
17,CATGCCACGTGGTGTT,-0.16
18,TACGACACGTGTTGGT,0.07
19,GTATTCACGTGTTTGC,0.23
20,TGGGGCACGTGGCGGT,-0.14
21,AAGTGCACGTGTTAGG,-0.03
22,CATAGCACGTGGTTGT,-0.26
23,TCAGTCACGTGTATGA,0.09

row,Sequence,relative binding free energy [kcal/mol]
1,GCTCGCACGTGGTGGC,0.02
2,GGGACCACGTGATTTG,0.34
3,TGATTCACGTGGTGCA,0.2
4,AATAGCACGTGCGGTG,-0.16
5,TTCATCACGTGAGGTT,0.37
6,TGTAACACGTGATTGG,0.16
7,TAGCGCACGTGAGTAG,0.12
8,GTGTGCACGTGGCAGG,-0.11
9,TGTTGCACGTGTAGGC,0.05
10,GTTTACACGTGGGTTT,0.13
11,CTGGCCACGTGTTGGG,-0.21
12,GTGAGCACGTGGAGAA,-0.1
13,TGTAGCACGTGTGCAG,0
14,TCGTGCACGTGGCGGT,-0.16
15,AGTTTCACGTGTCGAA,0.16
16,ATCTGCACGTGCGGGG,-0.09
17,CAAATCACGTGAGTGT,0.36
18,GTCGGCACGTGCGCGT,-0.06
19,ATGTCCACGTGTAGTT,0.03
20,ATGTTCACGTGACTGT,0.3
21,GAGTTCACGTGGGTGG,0.24
22,AGTGCCACGTGGTGAT,-0.15
23,ACTAGCACGTGGTGGT,-0.19

row,Sequence,relative binding free energy [kcal/mol]
1,TGGCGCACGTGAAGAG,0.3
2,ACTTTCACGTGGGTTC,0.13
3,ACTTTCACGTGGGTTG,0.14
4,TTACTCACGTGTTTTT,0.24
5,AGTTGCACGTGCGTTT,-0.03
6,ATAGCCACGTGTTAGG,-0.16
7,TTTTTCACGTGCATAA,0.22
8,GTGGACACGTGGCTAG,-0.12
9,TAGTGCACGTGAATTT,0.37
10,TTGGGCACGTGGGGCT,-0.17
11,ATGGTCACGTGGCAGG,0.01
12,TGACTCACGTGGGGCG,0.01
13,GTACGCACGTGGTTAG,0.02
14,AGATTCACGTGAGGCT,0.26
15,GCAGGCACGTGTTAGT,-0.15
16,AGCGTCACGTGGTAGC,0.07
17,ATATACACGTGGATGA,0.06
18,GGGTACACGTGCGGGG,0.03
19,TGCTACACGTGCGCGG,0.12
20,TAACGCACGTGGGGCT,-0.17
21,ATCTGCACGTGTATAG,0.15
22,AATAGCACGTGTGGTG,0
23,TGGGTCACGTGGAATG,0.29

row,Sequence,relative binding free energy [kcal/mol]
1,TTATACACGTGTAATG,0.08
2,TTTAGCACGTGTAATG,0.11
3,TTGGGCACGTGAGGAA,0.16
4,ATTGACACGTGTTTGC,0.03
5,ATAGCCACGTGGTGTG,-0.14
6,GGTAGCACGTGTCATG,-0.04
7,GATTTCACGTGATTTC,0.45
8,GTATGCACGTGTGTTC,-0.07
9,CTCGGCACGTGGTTGT,-0.16
10,TATGTCACGTGCCGTG,-0.04
11,GTATTCACGTGAAGTT,0.38
12,GTTACCACGTGAGGGT,0.21
13,TAGGGCACGTGAGCTA,-0.04
14,AATAGCACGTGTAGTT,-0.13
15,CTAATCACGTGGGTAG,0.02
16,AGGATCACGTGGCAAG,0.24
17,ATGTGCACGTGGGGAA,-0.06
18,GTAAGCACGTGCAGGT,-0.24
19,ATGGGCACGTGGCGAG,-0.12
20,GCGGTCACGTGGTCTG,0.1
21,ATAATCACGTGGTGGG,0.01
22,TCGTTCACGTGGAGGT,0.18
23,TTGGTCACGTGTCAGA,0.16

row,Sequence,relative binding free energy [kcal/mol]
1,ATTGTCACGTGGTATA,0.04
2,TTTTCCACGTGAGGAG,0.29
3,TAGGGCACGTGAGGCA,0.08
4,GGTGTCACGTGTTAAG,0.13
5,TAGTACACGTGCTGTG,-0.02
6,TTAGTCACGTGGTTTT,0.09
7,ACAGGCACGTGAGGTT,0.01
8,AATAGCACGTGTTGAG,-0.17
9,AAGTTCACGTGTGGCT,0.32
10,GAGGACACGTGAATGT,0.39
11,TGACGCACGTGGGTGA,-0.35
12,GGGTTCACGTGATAAG,0.39
13,AGTGCCACGTGCGTGG,-0.27
14,TGCATCACGTGGGCGG,-0.17
15,GCAGTCACGTGTCGGT,0.14
16,ACGGGCACGTGAGGAG,0.22
17,TTGCACACGTGCGGGG,-0.02
18,GAAAGCACGTGGGGCT,-0.19
19,CAGTGCACGTGTTCGG,0.06
20,CAGGACACGTGGGGGG,-0.12
21,GCTATCACGTGTTGGG,0.18
22,GTAGTCACGTGTCTTG,0.14
23,GGTTACACGTGACGTA,0.34
